This is one part of the list. Shown are side measurements of this screen, not its main read-out; they come without a call. Potencies come from curve fits of mixed quality, noted in brackets.
Assay: qHTS drug screen for cell cycle checkpoint inhibitors in PARPi-resistant BRCA-mutant ovarian cancer cell lines. (AID 1963452)
Conditions: PEO1/OlaR viability, CellTiter-Glo luminescence, 96 h
Outline: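 PEO1, PEO4 and PEO1/OlaR ovarian cancer cells, 600 per well, exposed 96 h at 37C to a dilution series. Viability read by CellTiter-Glo luminescence, normalized to DMSO and empty wells; activity summarized as Z-AUC.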

[1] = measured here: PEO1 parental viability
Tags give direction and shape of the fitted curve.

| Structure (SMILES) | AC50 [1] | AC50 (measured here: PEO4 viability) |
| --- | --- | --- |
| CC1(C)CC[C@]2(NC(=O)C(C)(F)F)CC[C@]3(C)[C@H](C(=O)C=C4[C@@]5(C)C=C(C#N)C(=O)C(C)(C)[C@@H]5CC[C@]43C)[C@@H]2C1 | 1.23 µM [falling, full curve] | 1.55 µM [falling, partial curve, poor fit] |
| COC(=O)[C@]12CCC(C)(C)C[C@H]1[C@H]1C(=O)C=C3[C@@]4(C)C=C(C#N)C(=O)C(C)(C)[C@@H]4CC[C@@]3(C)[C@]1(C)CC2 | 1.23 µM [falling, full curve] | 0.776 µM [falling, full curve] |
